Results as given in the supplement of paper PMC10681739.
± gives the standard deviation of the averaged measurements. Over roughly 4,000 sequences, “arbitrary fluorescence units” has its median near 830; the highest 2% begin near 6,500. This part holds few or none of the hits.

Each sequence was assayed against RUNX1 (UniProt Q01196) (assay: RUNX1 binding intensity (PBM fluorescence), RUNX1 alone (arbitrary fluorescence units); higher = stronger binding). Conditions: RUNX1 concentration 2 nM; ETS1 concentration 0 nM.
Description: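 gcPBM on 36-bp genomic-derived probes (partner site mutated) containing one RUNX1 site and no ETS1 site. Recombinant human RUNX1 (2 nM) was incubated alone or with ETS1 (25 nM) and detected by anti-RUNX1 antibody fluorescence. Values are medians over 4 replicate spots (not normalised). The probes sit in constant array flanks that are not printed.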
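Also: Full-length recombinant human RUNX1 bound to double-stranded DNA microarray spots, detected with an Alexa488-labelled secondary antibody after the anti-RUNX1 primary, read as scanned spot fluorescence.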

Chain of UniProt Q01196 (Q01196 whole entry): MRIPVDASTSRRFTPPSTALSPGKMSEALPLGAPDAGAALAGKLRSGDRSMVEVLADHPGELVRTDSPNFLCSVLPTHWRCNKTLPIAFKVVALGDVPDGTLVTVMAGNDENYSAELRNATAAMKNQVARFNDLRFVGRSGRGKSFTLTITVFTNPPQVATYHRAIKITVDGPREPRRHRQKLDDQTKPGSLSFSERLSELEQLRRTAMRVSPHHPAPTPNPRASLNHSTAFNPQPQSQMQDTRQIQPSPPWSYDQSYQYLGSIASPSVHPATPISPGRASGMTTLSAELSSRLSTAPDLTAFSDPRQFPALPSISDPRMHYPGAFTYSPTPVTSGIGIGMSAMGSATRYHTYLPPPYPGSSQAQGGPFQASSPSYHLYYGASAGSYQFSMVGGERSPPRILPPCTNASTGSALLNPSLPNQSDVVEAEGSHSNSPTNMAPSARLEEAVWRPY

Sequence	RUNX1 binding intensity
CTCCCACCTCCGAAGCGGCGCAACCCACAACAGCCT	1090
AAAGCCAACCACAACATGAAGGGGAGGTACACAATA	1390
AGCACTCTGACCGCATGCAAAGGGAGTTCCTTTCGC	2800
CTGGAGAGGAGGTGGCCCCAGTGTGGTTCTGTAACT	758
TCCAACACAACCACAGCCCCCGTGCCGTAAGCTGTT	1050
AATGCTGTGGTTTCAGCCACAGCACCCGGCGAAGGT	1170
GTCACACTGTGGTTTTACACGGCAGCTCAGGTTGCC	1780
TTTCTGACTTGCTGTGTGCTTCAGAAACCTCAATGA	824
TCCAAGGCGCAAAAAACCCGCCCTAAACCGCACCCC	1630
TGCGCCGCTTCAGCTGCCCGAGGAAGAGCCGCAGTC	701
GACTGAGATTGCCTGCCAGCAACCACATGGCTTGTC	832
GCGGAATTGTGGCGGGAGGGGGAGGAGGAGGTCAGG	1070
TGAGGAATGTTTTACTGGGGCTGTGGGGCCAGGGTG	643
GAGGGGGAGGTTTTCGGGGCCTGTGGTTACTACACT	1100
GGAGCAGCAAGCGTCGCCGGGGGGCCCACAAGGGTA	649
ATGACTTCGAGGAGGTCTTCAGAAACCACAGGCTGA	822
GCATGTTTTACTGTGGAAGCGGCCCACAAAACCTGC	799
CTAGCTCCGCCCCGCAAGAAGGACTTTCGCGTCCTC	808
GCCGCCGCCGCAGGCCCCAGACCGAAAGTGAATGCC	1050
AACAGATCCTTCATGGCCCCCACTAGCCACAGGTTT	930
TAAGAGGAGACCTCAAACCAGAACCCTTCATGGCAG	715
CAGTCAAGAGGCAATTATAAACCACTGCCTCTTTGA	843
TTTACAGGCAATATCCAGAACAGGTAAACCCACAGA	820
ACAGAGCAGCAAGCAGCCCTCACCACAGATGAAGCA	740
GTGCGGACCGCGGGGAGCAAGCGCCCGCCGTAAGCA	688

Sequence	RUNX1 binding intensity
CCTTGCCTGCGGGCTTTCTGGTCTCCGAATGGAGGC	714
TTACCCCATGAAAAGCCTCCTCACCGCAGTGACCAG	1120
GAACCCCAAGTTCCAGCTGGCACTGCGGCGGAGCCT	678
GACTGGATACAAGAATTCCGCGGACTGCCGCAGTCG	684
TGGGGTGTCCGAGCCGCCCCCGAACCGCGCACCCGA	796
ACAGTCGCACCGTAAGCTGCCCGCGGTGTTGACACA	722
TGTTGGAAACCACAGGGCCCGGTGGATAGCCGTCAC	1360
TTTTCCCACCTCCTAGGTTGTGGTGGGGATTACACA	797
GCGGCACACCGCGACTGCTAATTAGCCCGGGAGCTG	726
TTCCATTGCGGGCTCCCAACAGTACCCTTCGTCCCT	1040
TCCCCTCTCCCCAGCCGCCCGAGACCACAGCCACTC	1190
AGAGCTTGTGGGGAGGAGCCCTCTTCGTTCATGCCC	687
AGTAACCGCTAGCAATCTCATGAGCAGCAAGCACAA	820 ± 9.8
AAAGGGCGGGGAGACGGAATTACCGCGAGCTCTCCG	768
GGCCGTTCTTGCGCCTGCAGGGTGGTCAGCGGAGGT	710
ACTCAGTCCTGAACCACATTACTTTCATGTCTACGT	1460
TGGGCTGGGCCCGAACCTCACGGACCGCACCCAACC	851
TGGTTCAGCCCTCGGTGCCTGCAGGGGACCGCGGAG	677
GCGGCTGTGGGAGGGAGCAGAACGAAGGGAAGGAAG	822
ATGTAAACAAGGAGGTGAGTTCTGCGGCCACACTCT	719
TGAGAAGGCATGATAAGTGACCACATATTTATGCCA	802
GCCCGGGCCGCCGCAAGGCTGTCTGGGACATGTAGT	752
CTCCTGCGGCGACACGCCTAGCAGACGGCGCAAGGC	773
GGACATCAGATGTGGTAGAGCAGGCAGAGGCGCTGT	615
TGAGGCTCAGAGGAGGTGACTGGCCCGCAGGGTCAC	693

Sequence	RUNX1 binding intensity
CCTGCAGCCGCAGCGGCACGCGCCTGAAGCCGGGCT	773
AGTCAGGCTGGCAACAGCGATCCCCGGCAACCACAA	762
GCAGCAAATGACGTCAGACCTCACTGCGGGTCTGAG	779
GGCGGCACTTGTGCGTACGCTGGAAAACCGCTGGGG	723
ACTACATGTCCCAGACAGCCTTGCGGCGGCCCGGGC	846
GGGTGGGCGGTCAAAGCGCACGCGGCAGGGCGAAAG	734
GCGCGGCTCCAACGCCGCAGCTTTCCAGGAACACTC	829
CCCACTGCCTGTCTGCTTCCCTCCACCGCTCAGACC	1230
TTTTATCCTTCGTTTTTTGTTCTTTGTGGTGGAGGT	2070
GAAGGCGGTTCAGGTTCGCGGCGGTTCCCGGGTTTT	780
GTTCTTCCACCTCCGCGTTACCCACAACGGCAGTGG	1400
GCCCACGCCGCAGGGAGGTGAGACTGAAGGACGCAC	727
GACTGCACCTCCTCTGCTTCGAGGTCGGTGGTTAGC	836
AGGCGCCCAATCCAGTGCATGGTCTGTGGCGCATGC	686
AGGAGCCCACCCGCAGAGCTGTGATTTGCTGACTCG	782
CCAGTTCCCGCCTACCGACCTGCTGCACCGCACGGA	1120
TAGCCGTACGTAAATGTTTGTGGTTCTCTGCATCTA	1020
CACGTCCTGCGGCCTCAGCCGCCTCTTCGGCCATCC	964
AGTTGCTGCCTAATCCTGCTGAGCCATTAGCCACAA	903
CCCATTCCCGAGAGTGGCAGGGCTGGGCGCGGTGGG	754
ACTAGAGCCAACCACCTGCCTTCAGTATTCCAGGCA	841
GCCGTGAATGCGGGCTCTCCTGCCGTAAGCTGCCCC	824
GAACCAGTTCCCTGAAACCATTTACCACATAAATCT	1140
CCTCAGGAGAAACCACCCTAGTAGTTCCTCTCCGAG	858
GGTCTCTGCTTACGGTCCTTGTGGTAGCACCTCTGT	930

Sequence	RUNX1 binding intensity
CGAAGCCAGCAAATAAGGATAAACCACAGAAAGAAA	1140
TGCTCTGACCACTGAATAACGCCTCCGTCTGAACAC	1260
GATGAAAGAGGGAGTTCTCAAACCACCTTGCCAGTG	767
ACTGCCATACGCCTCAAACGCCAGCCGCAGGCTCTC	888
AGGGTTACAAATTCCGTAAACCACAGAAGCAGCAGA	1310
TGACGGCCAGCAAGCCTGAAGCCGCAGGGGCCGCCG	705
CTAGTCTGATTCCTCATCTGCGGCCTGCACGCCCGC	977
CTCTTTCACAAAGCAAATGGAAACCACAAAGAGGAC	1570
TGGGCTTCTCTGTGGGTGTGGCGGGAACTAGATGAA	708
CAACACAGCATGTGCAGTATTATACCGCAAAGCACT	885
CTCCTGGGCTCGTGGTCAAAACATGCTGTAGCAAGG	753
GAGAGGTGGTTGCTGGGAGAGCTGTTCAGGCGCTCA	765
CCGACCGCACCAGCTCCCGCGCGTGGTTCAGCCGCT	1080
CCTCACCCAGCAAGTGGCTGCGGCTGTCTCAGGGTT	890
CCAGCATGTAGTTTGGCCACTATTGAGTGGTTTGTT	822
AACCTGCAGACTTGCTGCCATGTGACCACAGGGTCT	822
ACAGCGGTCATCAAAACACCAGGTCCCTCCTCGGCC	812
AGTATACTGTGGTGAGAAACTGCCTGCCATACCAGC	824
GGATTGTGGGGTAGCGAACCCCGGGGCCGTAAGCAG	771
TGGCGGCGGAGACTGCCCATGGCGCGAGGCCGCAAG	708
AGCCTACACCCTGCACTGCTTAACCACAGCCCGCCT	2130
AGGCTGTGGGTGCCCTCGCCTTGCCCTCAGGCAGGG	704
CCCGGCTGAACTCGCTGTCCCGGCAGGCACCGCGGC	1040
CGTAGACACCTTCAGCTGCACCCAGCCGCAGCTGGT	803
GACAAACATACCGCTAGGACAGCATGTGAAATCCAC	786

Sequence	RUNX1 binding intensity
TCACTAATTGTGTGGGGCCCCAGGGTGTGTTTTGGT	756
CTGCTGCGGCAGAACGCGACGTGCTAACCTGAATCC	771
TAATGCGGTTGCTCACTTAACAGACTACAGCATGGT	1260
GTGCAACTGCGGTAAAAATAGGCAGTGGGGGAGGAG	1050
AGGTCTTTTGCATCATGCAGAACACCACATGTGTCC	810
TACAGGCACTTGCTGCGCGGCTGCTGTGGTTGCGAG	653
TGGTACCACAAAGCGGCGGCAGGAGGGACGTTTCTG	864
CGAGCAGGCAGTGGCAAGATTTGATAGGCGGTCAGG	712
ACAGAGAGGGACGTCGCCAGTGTGGTCAGCGGGCGT	879
AAGGCGGTACTGCCTCCAGCATTTGCCGCAAGTTAT	646
CAGATTTACGGCTTCTGAGGAGCTGCCCTACCACAG	734
AAGCCGGTGGTTTCTGGAGGTTCAGCACATGCTGGA	789
AATGAGCCCCACAACCCTTTTCCTTACGGCCTGCAC	1150
AACAACAGCATGCTCTCTAGTCTAACAGTGGTAACA	904
CGTGGCGGTATCCCGGAGCCTGCCGTCCAGCCCTAC	790
GCCAGGGCTGCGGCGGGAGAGGAGGCCGGGCGGCCG	760
GGAGGAAGAGAGGAATCGGGGGCGGCCGCAGCTTCT	741
GGCAGCGGTTTTCGCTGTCGGCACTGAAGGGAAGCA	813
TCAAAAACCTTACCACTTCAGCCGGCAACTACAGGA	893
TTGCATGCTGGGATTTGTAGTCCTGGCCGCAGTGCT	645
GAATAACCACAACAACCGATGCACCTCCGTGTTTAA	3610
GCGTCGGCCACAAGGCGTTTTACGTTCAGCCCCCTG	789
ATGTTAACACCCTGCCATGAAAACCGCAAGAAGGGC	11200
GGGCCCCGCAGCCCGACCGCCTGACCGAAAGTGCAG	815
CATGTGGTCAACTCGATTTGTCACAGCAAGTACCCA	830
